In patent publication US8975247B2, “Methods and compositions of treating a flaviviridae family viral infection” (priority 2009, dated 2015):

Experiments:
Huh7.5 cells = format: cell-based
[1] = system: HCV genotype 2a infectious clone; assay: HCV genotype 2a infectious clone assay (Renilla luciferase); format: cell-based; conditions: for activity at 5 µM: Hepatitis C virus, read-out: 2a % activity @ 5 μM, % replication activity of control remaining at 5 μM test compound

Row | SMILES | 2a Cell Viability @ 5 μM (Huh7.5 cells; human, 3 days, 5 μM) | 2a Cell Viability @ 10 μM (Huh7.5 cells; human, 3 days, 10 μM) | activity at 5 µM [1] [%] | 2a % activity @ 5 μM ([1]; % replication activity of control remaining at 5 μM test compound) [%] | 2a Cell Viability @ 5 μM (Huh7.5 cells; % cell survival at 5 μM) [%] | 2a Cell Viability @ 10 μM (Huh7.5 cells; % cell survival at 10 μM) [%] | 2a Cell Viability @ 3 uM (Huh7.5 cells; human, 3 days, 3 uM) [%] | 2a Cell Viability @ 6 uM (Huh7.5 cells; human, 3 days, 6 uM) [%]
1 | Fc1cc2ncn(Cc3ccc(Cl)cc3)c2cc1F [EBP269] | 97% | 85% | 76 |  |  |  |  | 
2 | OC[C@@H]1CCCN1Cc1nc2ccccc2n1Cc1ccc(Cl)cc1 [EBP270] | > 100% | 98% |  | 89 |  |  |  | 
3 | Cc1cc2nc(CC3CCCC3)n(Cc3ccc(Cl)cc3)c2cc1C [EBP271] |  |  | 61 |  | 100 | 90 |  | 
4 | Cc1cc2nc(CN3CCC[C@@H]3C)n(Cc3ccc(Cl)cc3)c2cc1C [EBP272] | 98% | 69% | 56 |  |  |  |  | 
5 | Cc1cc2c(ncn2Cc2ccc(Cl)cc2)c(NCc2ccccn2)c1C [EBP299] | 85% | 81% | 57 |  |  |  |  | 
6 | COc1ccc(Cn2cnc3c([N+](=O)[O-])c(C)c(C)cc32)cc1 [EBP303] | 95% | 74% | 74 |  |  |  |  | 
7 | COc1ccc(Cn2cnc3c(NS(C)(=O)=O)c(C)c(C)cc32)cc1 [EBP304] | > 100% | 93% | 53 |  |  |  |  | 
8 | CCNc1c(C)c(C)cc2c1ncn2Cc1ccc(OC)cc1 [EBP306] |  |  | 71 |  |  |  | > 100 | 93
9 | CCN(CC)c1c(C)c(C)cc2c1ncn2Cc1ccc(OC)cc1 [EBP307] | 97% | 71% | 48 |  |  |  |  | 
10 | COc1ccc(Cn2cnc3c(NCC(C)C)c(C)c(C)cc32)cc1 [EBP308] | 93% | 82% | 45 |  |  |  |  | 
11 | Cc1ccc2c(c1)nc(CN1CCCCC1)n2Cc1ccc(Cl)cc1 [EBP314] | 97% | 84% | 67 |  |  |  |  | 
12 | Cc1ccc2c(c1)nc(CN1CCC[C@H]1C)n2Cc1ccc(Cl)cc1 [EBP316] | 97% | 93% | 90 |  |  |  |  | 
13 | Cc1cc2nc(/C=C/C(C)C)n(Cc3ccc(Cl)cc3)c2cc1C [EBP322] | > 100% | 95% | 74 |  |  |  |  | 
14 | Cc1cc2nc(COCC3CC3)n(Cc3ccc(Cl)cc3)c2cc1C [EBP323] | > 100% | 99% | 79 |  |  |  |  | 
15 | COc1ccc(Cn2cnc3c(N)c(C)c(C)cc32)cc1 [EBP346] | 103% | 99% | 68 |  |  |  |  | 
16 | COc1cc(CCc2nc3cc(C)c(C)cc3n2Cc2ccc(Cl)cc2)cc(OC)c1OC [EBP370] | 93% | 78% | 62 |  |  |  |  | 
17 | [O-][N+]1(Cc2nc3ccccc3n2Cc2ccc(Cl)cc2)CCCC1 [EBP405] | 100% | 96% | > 10 |  |  |  |  | 
18 | Clc1ccc(Cn2c(CN3CC=CC3)nc3ccccc32)cc1 [EBP409] | 100% | 98% | 80 |  |  |  |  | 
19 | Cc1cc2nc(CN3C[C@@H](O)[C@@H](O)C3)n(Cc3ccc(Cl)cc3)c2cc1C [EBP411] | 93% | 99% | 68 |  |  |  |  | 
20 | O[C@@H]1CN(Cc2nc3ccccc3n2Cc2ccc(Cl)cc2)C[C@@H]1O [EBP412] | 100, 100% | 100, 100% | 81 |  |  |  |  | 
21 | Cc1cc2nc(CCc3cccnc3)n(Cc3ccc(Cl)cc3)c2cc1C [EBP416] | 100% | 91% | 53 |  |  |  |  | 
22 | Cc1cc2nc(C=C3CCNCC3)n(Cc3ccc(Cl)cc3)c2cc1C [EBP422] | 89% | 80% | 78 |  |  |  |  | 
23 | Cc1cc2nc(/C=C3\CCCNC3)n(Cc3ccc(Cl)cc3)c2cc1C [EBP423] | 98% | 71% | 59 |  |  |  |  | 

Like-named read-outs stand apart in the source and are kept apart here.
